Consider 1 molecule from patent publication US6204276A, “Dicarboxylic germanium complex and its therapeutic use” (Primamedic Ltd., priority 1996, dated 2001).

The assay deals with WSN strain of influenza A virus (H1N1). Kind of assay: Investigation of anti-influenza activity. The settings on record: statement in words.

On to `O=C1[O][Ge]2([O]C(=O)c3cccc1n3)[O]C(=O)c1cccc(n1)C(=O)[O]2` [Compound I, germanium bis(pyridine-2,6-dicarboxylate)], for which the anti-influenza effect entry is on record as “high anti-influenza effect”.
